{
  "source": "paper PMC4336329",
  "about": "(PLoS ONE, 2015)",
  "note": "In all, about 310,000 compounds went through this assay and about 2,200 (0.71%) showed an effect of 50% or more. The effect is printed as a negative number. The list shows a part of the results.",
  "data": [
    {"target": "human ether-à-go-go-related gene (hERG) potassium channel (human, UniProt Q12809)", "sequence (Q12809 whole entry, looked up)": "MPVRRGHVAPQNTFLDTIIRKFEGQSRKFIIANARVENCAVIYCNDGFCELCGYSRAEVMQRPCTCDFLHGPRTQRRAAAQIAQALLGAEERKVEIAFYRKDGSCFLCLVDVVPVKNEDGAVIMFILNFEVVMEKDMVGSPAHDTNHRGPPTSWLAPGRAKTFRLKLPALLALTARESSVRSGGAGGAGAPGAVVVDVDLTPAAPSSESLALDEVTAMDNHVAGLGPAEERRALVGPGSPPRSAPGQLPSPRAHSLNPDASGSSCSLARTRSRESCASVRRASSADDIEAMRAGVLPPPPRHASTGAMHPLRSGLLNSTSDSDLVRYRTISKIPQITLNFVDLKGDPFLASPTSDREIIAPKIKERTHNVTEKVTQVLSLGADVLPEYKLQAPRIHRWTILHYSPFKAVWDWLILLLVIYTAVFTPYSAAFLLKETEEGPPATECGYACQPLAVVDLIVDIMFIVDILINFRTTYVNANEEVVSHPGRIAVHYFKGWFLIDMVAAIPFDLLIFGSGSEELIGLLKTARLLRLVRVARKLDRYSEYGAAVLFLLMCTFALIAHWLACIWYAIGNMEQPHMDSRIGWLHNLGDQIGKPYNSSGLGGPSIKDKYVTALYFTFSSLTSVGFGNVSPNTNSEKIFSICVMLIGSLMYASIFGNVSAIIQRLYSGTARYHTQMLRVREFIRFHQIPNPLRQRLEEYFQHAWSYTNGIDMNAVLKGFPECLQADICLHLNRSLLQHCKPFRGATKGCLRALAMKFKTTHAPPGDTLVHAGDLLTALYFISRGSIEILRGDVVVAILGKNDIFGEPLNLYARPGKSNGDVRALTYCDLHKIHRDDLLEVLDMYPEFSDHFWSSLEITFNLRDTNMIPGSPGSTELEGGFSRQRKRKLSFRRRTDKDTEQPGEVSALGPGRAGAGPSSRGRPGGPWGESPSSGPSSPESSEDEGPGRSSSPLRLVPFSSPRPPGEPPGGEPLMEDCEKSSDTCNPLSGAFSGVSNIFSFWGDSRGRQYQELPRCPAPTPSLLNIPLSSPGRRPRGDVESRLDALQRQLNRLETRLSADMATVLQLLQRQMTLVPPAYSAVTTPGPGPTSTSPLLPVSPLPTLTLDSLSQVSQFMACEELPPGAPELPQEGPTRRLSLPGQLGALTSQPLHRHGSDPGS", "assay": "primary screen, population patch clamp on CHO cells stably expressing hERG", "units": {"hERG current change (%, negative = inhibition) at 1uM": "%"}, "values": [
      {"compound": "CCc1cc2ccc(OC)cc2nc1SCC(=O)Nc1cc(C)on1", "hERG current change (%, negative = inhibition) at 1uM": 2.85},
      {"compound": "CCN1C(=O)N[C@@H](CCc2ccccc2)[C@H](C(C)=O)[C@H]1C", "hERG current change (%, negative = inhibition) at 1uM": 7.01},
      {"compound": "COCCOC(=O)c1nccnc1C(=O)Nc1ccc(S(=O)(=O)N2CCOCC2)cc1", "hERG current change (%, negative = inhibition) at 1uM": 5.8},
      {"compound": "O=C(Nc1ccc(Cl)cn1)C1CC1", "hERG current change (%, negative = inhibition) at 1uM": 6.41},
      {"compound": "CCCCn1c(N)c(N(CC(C)C)C(=O)CN(C)S(=O)(=O)c2ccc(NC(C)=O)cc2)c(=O)[nH]c1=O", "hERG current change (%, negative = inhibition) at 1uM": 9.21},
      {"compound": "COc1cc(/C=C/C(=O)OCC(=O)NC(=O)NC(C)(C)C)ccc1O", "hERG current change (%, negative = inhibition) at 1uM": 9.37},
      {"compound": "O=C(CCNC(=O)Cn1ccc2ccccc2c1=O)NCCCN1CCN(c2ccccc2F)CC1", "hERG current change (%, negative = inhibition) at 1uM": 12.1},
      {"compound": "FC(F)(F)c1ccnc(NCc2ccc(Cl)cc2)n1", "hERG current change (%, negative = inhibition) at 1uM": 3.65},
      {"compound": "CSc1ccc(CN2CCN(c3ccccc3C)CC2)cc1.O=C(O)C(=O)O", "hERG current change (%, negative = inhibition) at 1uM": 6.25},
      {"compound": "O=C(Nc1cc2c(cc1Cl)OCCCO2)c1ccco1", "hERG current change (%, negative = inhibition) at 1uM": 6.47},
      {"compound": "O=C(CNc1ccccc1Cl)Nc1cc(S(=O)(=O)N2CCOCC2)ccc1Cl", "hERG current change (%, negative = inhibition) at 1uM": 12.6},
      {"compound": "COC(=O)C1=C(CSc2nc3c(cc2C#N)CN(C)CC3)OC(N)=C(C#N)C1c1ccccc1F", "note": "(stereo not shown)", "hERG current change (%, negative = inhibition) at 1uM": -18},
      {"compound": "CN(C)c1ccc(NC(=O)c2cc3c(=O)n4ccccc4nc3n2C)cc1", "hERG current change (%, negative = inhibition) at 1uM": 8.06},
      {"compound": "O=C(COc1ccc(Cl)cc1)N1CCCC1", "hERG current change (%, negative = inhibition) at 1uM": 1.2},
      {"compound": "C=CCNC(=S)N1CC2(C)CN(C(=S)NCC=C)CC(C)(C1)C2=O", "hERG current change (%, negative = inhibition) at 1uM": 18.8},
      {"compound": "Cc1nnc(NC(=O)c2ccc3c(c2)NC(=O)CS3)s1", "hERG current change (%, negative = inhibition) at 1uM": 7.12},
      {"compound": "CCOC(=O)Cc1csc(NC(=O)CN2CCN(c3ccccc3)CC2)n1", "hERG current change (%, negative = inhibition) at 1uM": 24.6},
      {"compound": "COCCn1nnnc1C(c1cccc(C(F)(F)F)c1)N1CCOCC1.Cl", "note": "(stereo not shown)", "hERG current change (%, negative = inhibition) at 1uM": 19.8},
      {"compound": "COc1ccc(C(=O)NC(=S)N2CCNC(=O)C2)cc1Br", "hERG current change (%, negative = inhibition) at 1uM": 9.03},
      {"compound": "COc1ccccc1NC(=O)N(Cc1ccco1)Cc1cc2cc(C)cc(C)c2[nH]c1=O", "hERG current change (%, negative = inhibition) at 1uM": 5.31},
      {"compound": "O=C(NCc1ccccc1F)C1CCN(C(=O)NCc2ccccc2)CC1", "hERG current change (%, negative = inhibition) at 1uM": 2.13},
      {"compound": "Cn1cc(S(=O)(=O)NCc2ccc(F)cc2)c(=O)n(C)c1=O", "hERG current change (%, negative = inhibition) at 1uM": 13.8},
      {"compound": "O=C(O)/C=C/C(=O)NCc1cn(-c2ccccc2)nc1-c1cccc(Br)c1", "hERG current change (%, negative = inhibition) at 1uM": 8.61},
      {"compound": "CCOC(=O)c1c(-c2ccc(C)o2)csc1NC(=O)CSc1ncn[nH]1", "hERG current change (%, negative = inhibition) at 1uM": 13.4},
      {"compound": "COc1cccc(-c2cc(C(=O)O)no2)c1", "hERG current change (%, negative = inhibition) at 1uM": -0.258},
      {"compound": "CC(=O)c1ccc(NC(=S)N(Cc2ccccc2)C(C)C2CC2)cc1", "note": "(stereo not shown)", "hERG current change (%, negative = inhibition) at 1uM": 14.5},
      {"compound": "CC(C)c1ccc(N(CC(=O)NCC2CCCO2)C(=O)Cn2nnc(-c3cccs3)n2)cc1", "note": "(stereo not shown)", "hERG current change (%, negative = inhibition) at 1uM": -8.22},
      {"compound": "CC(NC(=O)CN1C(=O)NC(C)(c2cccc3ccccc23)C1=O)c1ccccc1", "note": "(stereo not shown)", "hERG current change (%, negative = inhibition) at 1uM": 8.49},
      {"compound": "CC(O)c1nc2ccccc2n1Cc1ccc([N+](=O)[O-])cc1", "note": "(stereo not shown)", "hERG current change (%, negative = inhibition) at 1uM": -18.8},
      {"compound": "CN(C)c1cc[n+](Cc2c(Cl)cccc2Cl)cc1.[Cl-]", "hERG current change (%, negative = inhibition) at 1uM": 13.9},
      {"compound": "O=C(/C=C/c1cc(Br)ccc1F)OCC(=O)N1CCCC1", "hERG current change (%, negative = inhibition) at 1uM": 9.59},
      {"compound": "Cc1ccc(NC(=O)CN2CCN(C(=O)C3CCCO3)CC2)c(C)c1", "note": "(stereo not shown)", "hERG current change (%, negative = inhibition) at 1uM": -6.85},
      {"compound": "CCOc1ccc(N(CC(=O)NC2CCCCC2C)S(=O)(=O)c2c(C)noc2C)cc1", "note": "(stereo not shown)", "hERG current change (%, negative = inhibition) at 1uM": 17.2},
      {"compound": "O=C(Nc1cccc(Cl)c1)c1ccc2c(c1)OCCO2", "hERG current change (%, negative = inhibition) at 1uM": 2.9},
      {"compound": "Cc1ccnc(N2CCCC(C(=O)NCc3cccs3)C2)n1", "note": "(stereo not shown)", "hERG current change (%, negative = inhibition) at 1uM": 2.17},
      {"compound": "CC(c1ccccc1)[n+]1ccccc1.[O-][Cl+3]([O-])([O-])[O-]", "note": "(stereo not shown)", "hERG current change (%, negative = inhibition) at 1uM": 11.3},
      {"compound": "COc1cccc(/C=c2/s/c(=C(\\C#N)C(=O)N3CCOCC3)n(-c3ccccc3)c2=O)c1", "hERG current change (%, negative = inhibition) at 1uM": 14.9},
      {"compound": "CCN(CCn1cccn1)C(=O)c1ccc2nc(Cc3ccc(OC)cc3)oc2c1", "hERG current change (%, negative = inhibition) at 1uM": -4.61},
      {"compound": "COc1cccc(-n2c(Cc3cc(=O)[nH]c(=O)[nH]3)nnc2SC(C)C)c1", "hERG current change (%, negative = inhibition) at 1uM": 2.56},
      {"compound": "O=C(O)/C(=C\\c1ccc(Cl)c([N+](=O)[O-])c1)c1ccc(S(=O)(=O)N2CCCCC2)s1", "hERG current change (%, negative = inhibition) at 1uM": -3.2},
      {"compound": "NC(=O)CNC(=O)[C@@H]1CC2(CC(c3ccc(Cl)cc3)=NO2)CN1C(=O)c1ccc(Br)cc1", "note": "(stereo partly shown)", "hERG current change (%, negative = inhibition) at 1uM": 9.7},
      {"compound": "CC(=O)Oc1ccc2c(c1)C(=O)c1ccccc1CO2", "hERG current change (%, negative = inhibition) at 1uM": 3.72},
      {"compound": "CCCOc1cccc(C2/C(=C(/O)c3ccc4c(c3)CC(C)O4)C(=O)C(=O)N2CCN2CCOCC2)c1", "note": "(stereo not shown)", "hERG current change (%, negative = inhibition) at 1uM": 9.29}
    ]}
  ]
}
